Test results as given in US20150183867A1 (AbbVie / Abbott, published 2015).

Assays:
Aβ1-42 = target: T1, Aβ1-42 (UniProt P05067 partial chain); assay: Aβ 1-42 ELISA, peptide on plate; N-terminal VD
T1 construct: domain: Aβ1-42; Aβ 1-42 is a part of it; also called A beta
Method: ELISA assays were performed to screen for antibodies that bind a desired target antigen as follows. Maxisorb NUNC Immuno plates were coated with 100 μL/well of 1 μg/ml of Aβ1-42 diluted in coating buffer overnight at 6° C. Plates were washed three times with PBS containing 0.02% Tween 20. Blocking solution was prepared by dissolving the blocking reagent for ELISA (Roche) in 100 mL water and then diluted further 1:10 prior to use. Plates were blocked by the addition of 265 μL/well blocking solution for 2 hours at room temperature. Plates were washed three times after blocking with PBS containing 0.02% Tween 20.
Antibody or DVD-Igs were diluted to 100 ng/μL in PBST+0.5% BSA and serially diluted 1:3. One hundred microliters of antibody or DVD-Ig preparations was added to the plate and incubated for 2 hour at room temperature. Wells were washed three times with PBS containing 0.02% Tween 20.
One hundred microliters of TMB solution was added to each well and incubated for 10 minutes. TMB solution was prepared by mixing 20 mL 100 mM natrium-acetate pH4.9 with 200 μL TMB solution (Roche #92817060) and 29.5 μL 3% H₂O₂. The reaction was stopped by the addition of 50 μL 1N sulphuric acid. Plates were read spectrophotometrically at a wavelength of 450 nm.

IL-18 = target: T2, IL-18 (UniProt Q14116 37-193, limits assumed); assay: direct bind ELISA, antigen on plate; C-terminal VD
T2 construct: Bought reagent
Method: Enzyme Linked Immunosorbent Assays to screen for antibodies that bind a desired target antigen were performed as follows. High bind ELISA plates (Corning Costar #3369, Acton, Mass.) were coated with 100 μL/well of 10 μg/ml of desired target antigen (R&D Systems, Minneapolis, Minn.) or desired target antigen extra-cellular domain/FC fusion protein (R&D Systems, Minneapolis, Minn.) or monoclonal mouse anti-polyHistidine antibody (R&D Systems # MAB050, Minneapolis, Minn.) in phosphate buffered saline (10×PBS, Abbott Bioresearch Center, Media Prep# MPS-073, Worcester, Mass.) overnight at 4° C. Plates were washed four times with PBS containing 0.02% Tween 20. Plates were blocked by the addition of 300 μL/well blocking solution (non-fat dry milk powder, various retail suppliers, diluted to 2% in PBS) for 1/2 hour at room temperature. Plates were washed four times after blocking with PBS containing 0.02% Tween 20.
One hundred microliters of antibody or DVD-Ig preparations diluted in blocking solution as described above was added to the desired target antigen plate or desired target antigen/FC fusion plate or the anti-polyHistidine antibody/His tagged desired target antigen plate prepared as described above and incubated for 1 hour at room temperature. Wells were washed four times with PBS containing 0.02% Tween 20. […]

B1: DVD231 (bispecific antibody, human IgG1, kappa)
heavy: EVQLLESGGGLVQPGGSLRLSCAASGFTFSNYGMSWVRQAPGKGLEWVASIRSGGGRTYYSDNVKGRFTISRDNSKNTLYLQMNSLRAEDTAVYYCVRYDHYSGSSDYWGQGTLVTVSSASTKGPEVQLVQSGTEVKKPGESLKISCKGSGYTVTSYWIGWVRQMPGKGLEWMGFIYPGDSETRYSPTFQGQVTISADKSFNTAFLQWSSLKASDTAMYYCARVGSGWYPYTFDIWGQGTMVTVSS[… human IgG1 constant region …]
light: DVVMTQSPLSLPVTPGEPASISCKSSQSLLDSDGKTYLNWLLQKPGQSPQRLIYLVSKLDSGVPDRFSGSGSGTDFTLKISRVEAEDVGVYYCWQGTHFPRTFGQGTKVEIKRTVAAPEIVMTQSPATLSVSPGERATLSCRASESISSNLAWYQQKPGQAPRLFIYTASTRATDIPARFSGSGSGTEFTLTISSLQSEDFAVYYCQQYNNWPSITFGQGTRLEIKRTVAAPSVFIFPPSDEQLKSGTASVVCLLNNFYPREAKVQWKVDNALQSGNSQESVTEQDSKDSTYSLSSTLTLSKADYEKHKVYACEVTHQGLSSPVTKSFNRGEC
notes: DVD-Ig; also called VD231H/VD231L
EC50 (Aβ1-42): 0.014 nM
EC50 (IL-18): 50.6 nM
